PubChem BioAssay AID488969 (Vanderbilt High Throughput Screening Facility, 2010)
Over roughly 110,000 compounds, “z-score” has its median near -0.1; the highest 2% begin near 2. Some of the results follow. Activity calls are given as the source filed them.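 How the source made its calls: active means z-score in the third read window above 3 or below -3; inactive means the rest.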

These compounds were tested against Metabotropic glutamate receptor 8 (Rattus norvegicus) (UniProt P70579) (assay: rat mGluR8 modulators via GIRK flux, primary screen, cell-based, thallium flux, HTS (AID 488969)). Conditions: HEK293 rat mGluR8, GIRK (G protein-gated inwardly rectifying potassium channel) thallium flux, FluoZin2; at 10 µM; stronger effect = higher value; submaximal glutamate (EC20) added with thallium.
Sequence of UniProt P70579 (P70579 whole entry, looked up): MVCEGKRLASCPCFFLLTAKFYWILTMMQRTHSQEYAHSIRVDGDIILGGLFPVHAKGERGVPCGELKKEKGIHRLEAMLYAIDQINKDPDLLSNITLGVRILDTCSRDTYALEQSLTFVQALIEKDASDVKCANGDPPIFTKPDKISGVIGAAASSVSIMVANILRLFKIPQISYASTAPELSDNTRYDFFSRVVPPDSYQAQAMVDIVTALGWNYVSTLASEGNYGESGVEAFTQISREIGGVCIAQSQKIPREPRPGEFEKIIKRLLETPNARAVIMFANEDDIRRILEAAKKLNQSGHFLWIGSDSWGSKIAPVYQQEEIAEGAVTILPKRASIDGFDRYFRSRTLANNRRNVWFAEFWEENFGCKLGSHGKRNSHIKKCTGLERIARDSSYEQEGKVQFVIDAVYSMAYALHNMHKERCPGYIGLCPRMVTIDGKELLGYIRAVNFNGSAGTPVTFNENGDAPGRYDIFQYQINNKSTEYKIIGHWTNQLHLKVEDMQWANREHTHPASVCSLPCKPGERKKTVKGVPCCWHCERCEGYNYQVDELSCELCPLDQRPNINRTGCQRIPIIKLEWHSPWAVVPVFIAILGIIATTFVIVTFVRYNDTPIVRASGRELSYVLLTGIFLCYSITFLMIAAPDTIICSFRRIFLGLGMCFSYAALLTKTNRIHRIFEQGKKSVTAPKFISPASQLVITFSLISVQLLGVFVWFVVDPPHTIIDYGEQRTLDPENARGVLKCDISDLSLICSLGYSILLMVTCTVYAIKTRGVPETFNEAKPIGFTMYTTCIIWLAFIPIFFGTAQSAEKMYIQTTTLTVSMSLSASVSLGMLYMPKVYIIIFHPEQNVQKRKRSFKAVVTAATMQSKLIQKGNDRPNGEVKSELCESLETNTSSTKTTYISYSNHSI
Work on `O=C(COC(=O)c1ccc(-c2cnc3ccccc3n2)cc1)c1ccccc1` yielded a z-score of -0.0971. `COCCNC(=O)Cc1cn(C)c2ccccc12` was tested, and the z-score was -0.27. `Cc1c(C#N)c2ccccc2n1CC(=O)NCCc1c[nH]c2ccccc12` showed a z-score of -0.0655. `COc1ccc(C)cc1NC(=O)CCS(=O)(=O)c1cccc2nonc12` showed a z-score of 0.142. In the case of `Cc1ccc(S(=O)(=O)N2CCCC2)cc1S(=O)(=O)N1CCCC1`, the z-score is reported as 0.281. Work on `c1ccc2c(c1)oc1c(N3CCOCC3)ncnc12` yielded a z-score of 0.0592. `Fc1ccccc1Cc1nnc2n1N=C(c1ccc(Cl)cc1)CS2` showed a z-score of -0.15. For `CCc1ccc(-n2c(CSc3nnnn3-c3ccccc3)nc3ccccc3c2=O)cc1`, the z-score was -0.169. For `CSCCC(NC(=O)C1CCC(C)CC1)C(=O)N1CCN(c2ccccn2)CC1` (stereo not given), the z-score was -0.488. With `Cc1ccccc1Cn1cc(NC(=O)c2cc(-c3cccs3)on2)cn1` the z-score was -0.0761. Work on `O=C(Nc1cccc(-c2nc3ccccc3[nH]2)c1)c1cccc(NC(=O)c2ccco2)c1` yielded a z-score of 0.28. With `COc1ccc(OC)c(-n2c(SCC(=O)Nc3cc(C)on3)nnc2-c2c[nH]c3ccccc23)c1` the z-score was -0.76. `CC(C)CC(=O)N=C1SC2CS(=O)(=O)CC2N1Cc1ccccc1` (stereo not given) gave a z-score of -0.23. `Cn1c2ccc(F)cc2c2ncn(Cc3ccco3)c(=O)c21` was tested, and the z-score was -0.587. With `CCOC(=O)N1CCC(NC(=O)c2ccc3c(c2)ncn3C2CCCC2)CC1` the z-score was 0.215. For `Cc1ccc(Cn2c(Cc3ccccc3)nc3ccccc32)cc1`, the z-score was -0.439. With `Brc1cnc(N2CCCC2)nc1N1CCOCC1` the z-score was -0.191. `COc1cccc(-c2noc(Cn3nc(C)c([N+](=O)[O-])c3C)n2)c1` was tested, and the z-score was -0.544. `CCOC(=O)c1sc(NC(=O)COC(=O)CNC(=O)c2ccco2)c(C(=O)OCC)c1C` showed a z-score of 0.493. `O=C(c1ccc(Cl)c(Cl)c1)N(Cc1ccco1)c1ccc(O)cc1` gave a z-score of -0.147. With `Cc1ccc(N=Nc2c(N)[nH]n3c(=O)cc(-c4ccccc4)nc23)cc1` the z-score was 0.281. Compound `O=C(CSc1oc(-c2ccco2)nc1S(=O)(=O)c1ccccc1)NCC1CCCO1` (stereo not given) has a z-score of 0.249. In the case of `O=C(CN1C(=O)c2ccccc2C1=O)Nc1sc2c(c1C(=O)NCc1ccco1)CCCC2`, the z-score is reported as -0.0489. `N#Cc1cnn(Cc2ccccc2)c1/N=C/N1CCOCC1` showed a z-score of -0.00615. In the case of `O=C(CSCc1ccc([N+](=O)[O-])cc1)NCCSCc1ccccc1`, the z-score is reported as -0.153. In the case of `Cc1ccc(NC(=O)CSC(N)=O)cc1Cl`, the z-score is reported as active: 5.44. For `c1ccc2ncc(-n3cnnn3)cc2c1`, the z-score was -0.189. `COc1ccc2c(Cl)c(C(=O)NCc3ccco3)sc2c1` was tested, and the z-score was -0.373. With `Cc1cnc(C(=O)OCC(=O)NC(C)C)cn1` the z-score was -0.327. `Cc1sc2ncnc(N3CCC(C)CC3)c2c1C` showed a z-score of -0.258. `COc1ccccc1/C=C/C=N/n1c(C2CCCCC2)n[nH]c1=S` gave a z-score of -0.154. `O=C(Nc1ccc2cn[nH]c2c1)c1c(Cl)cccc1Cl` showed a z-score of -0.0906. Work on `O=C(CNC(=O)c1ccc(N2C(=O)c3ccccc3C2=O)cc1)OCC(=O)c1ccccc1` yielded a z-score of -0.0932. `COc1ccc(N(CC(=O)Nc2ccc(OC)c(Cl)c2)S(=O)(=O)c2c(C)noc2C)cc1` was tested, and the z-score was -0.546. `CCOc1ccc(NC(=O)Cn2c(=O)oc3ccccc32)cc1` gave a z-score of 0.142. Compound `CC(=O)c1cccc(NC(=O)c2ccc(N(Cc3ccccc3C)S(C)(=O)=O)cc2)c1` has a z-score of -0.278. With `CCOc1ccc(C(=O)Nc2cc(-c3nc4ccccc4[nH]3)ccc2Cl)cc1[N+](=O)[O-]` the z-score was -0.393. In the case of `Cc1nc2cc(Cl)ccc2n1-c1ccccc1`, the z-score is reported as -0.335. `COc1ccc(OC)c(S(=O)(=O)Nc2ccccc2C(=O)O)c1` showed a z-score of 0.923. In the case of `COc1cccc(OCC(=O)NNC(=O)c2cccs2)c1`, the z-score is reported as -0.15. Compound `CC1(c2cc([N+](=O)[O-])cc([N+](=O)[O-])c2)CC(C)(C)N(C(=O)c2ccccc2)c2ccccc21` (stereo not given) has a z-score of -1.6. For `CN(CCOc1ccccc1)S(=O)(=O)c1ccc2oc3ccccc3c2c1`, the z-score was -0.0134. `CC1=CC(C)(C)N2C(=O)C3(SCC(=O)N3c3ccc(F)cc3)c3cc(C)cc1c32` (stereo not given) showed a z-score of 0.536. Compound `CN1CCN(C(=S)Nc2ccc(Cl)cc2Cl)CC1` has a z-score of -0.00982. `O=C(Cn1cnc2c(cnn2-c2ccc(F)cc2)c1=O)N1CCN(c2ccccc2)CC1` showed a z-score of -0.442. For `COC(=O)CC1COc2ccccc2N1C(=O)c1ccc(Cl)cc1` (stereo not given), the z-score was -0.235. Compound `CC(=O)c1c(O)cc(=O)n(-c2ccccc2)c1-c1ccc(Cl)cc1` has a z-score of 0.0305. Work on `O=C(ONC1=NCCCCC1)c1c(F)cccc1F` yielded a z-score of -0.673. Compound `Cc1ccc(C(=O)C(OC(=O)COc2ccccc2C)c2ccccc2)cc1` (stereo not given) has a z-score of -0.167. `O=C1N/C(=N\N=C\c2ccccn2)SC1Cc1cccc(SC(F)F)c1` (stereo not given) gave a z-score of -0.22. `CCc1ccccc1NC(=O)N1CCC(NC(=O)C(Cc2ccc(OC)c(OC)c2)NC(C)=O)CC1` (stereo not given) gave a z-score of 0.0816. `Cc1cc(C)c2cc(C#N)c(NCCOC(=O)c3ccccc3C)nc2c1` gave a z-score of -0.161. `COc1ccc(N(C(=O)c2ccc(Br)o2)C2C=CS(=O)(=O)C2)cc1` (stereo not given) was tested, and the z-score was 0.297. Work on `CCn1c(SCc2c(Cl)cccc2Cl)nnc1-c1nn(-c2ccccc2)ccc1=O` yielded a z-score of -1.26. `Clc1ccc(-c2n[nH]c3c2CCC3)c(Cl)c1` showed a z-score of 0.0993. In the case of `COC(=O)c1cc(NC(=O)CN2CCC(C(N)=O)(N3CCCCC3)CC2)cc(C(=O)OC)c1`, the z-score is reported as -0.587. For `Cc1nn(Cc2ccc(Br)cc2)c(C)c1NC(=O)c1nn(C)cc1Cl`, the z-score was -0.296. `C/C(=C1/C(=O)N(c2ccc([N+](=O)[O-])cc2)N=C1c1ccccc1)N(C)C` showed a z-score of -0.0791. Compound `CC1(NC(=O)c2cc(S(=O)(=O)N3CCCCC3)ccc2Cl)CCS(=O)(=O)C1` (stereo not given) has a z-score of -0.0681. For `CCn1cc(/C=N\NC(=O)c2ccc3c(c2)c(C)c(C)n3Cc2ccccc2)c(C)n1`, the z-score was -0.848. `Cc1cc(C)nc(NC(=O)CSc2nnnn2-c2ccccc2)n1` was tested, and the z-score was 0.708. Compound `CCOc1ccc(Nc2nc(Cc3nnc(SCC(=O)NC4CCCC4)n3C)cs2)cc1` has a z-score of -0.424. `CCOCC(=O)Nc1cccc(Br)c1` was tested, and the z-score was -0.00322. `N#C/C(=N\Nc1ccccc1F)C(=N)N1CCCCC1` was tested, and the z-score was 0.0493. With `Cc1cccc(S(=O)(=O)c2c(N)n(-c3ccccc3)c3nc4ccccc4nc23)c1` the z-score was -0.103. For `N=C(N)SCc1cccc2ccccc12`, the z-score was 0.125. For `Cc1ccc(C2CC2c2n[nH]c(=S)n2-c2ccc(Cl)cc2)cc1` (stereo not given), the z-score was 2.95. `O=C(C1CCCCC1)N1CCN(c2ccccc2F)CC1` gave a z-score of 0.184. In the case of `COC(=O)[C@H](CCSC)NC(=O)NCCC1=CCCCC1`, the z-score is reported as 0.864. For `COc1cc(-c2nc(-c3ccccc3)c(-c3ccc(F)cc3)[nH]2)cc2c1OCO2`, the z-score was -0.0411. In the case of `Cc1ccc(COn2c(-c3ccc(Cl)cc3)nc3ccc([N+](=O)[O-])cc32)cc1`, the z-score is reported as -0.0457. Work on `Cc1nc(SCC(=O)NCCc2ccccc2)n[nH]1` yielded a z-score of -0.0848. Compound `Clc1cccc(/C(Cc2nc3ccccc3[nH]2)=N\Nc2ccccc2)c1` has a z-score of -0.0881. `CCNc1nc(NC(C)C)nc(SCCOc2ccc(C)cc2)n1` was tested, and the z-score was -0.957. Compound `CN(CCc1ccccn1)C(=O)Nc1ccc(Cl)cc1` has a z-score of 0.0615. `Cc1ccc(OCC(=O)n2cnnc2N)c(C)c1` gave a z-score of 0.38. For `O=C(NC(=S)Nc1ccc(N2CCOCC2)c(Cl)c1)c1cncc(Br)c1`, the z-score was active: 7.69. In the case of `O=c1c(O)c(-c2cccs2)oc2ccccc12`, the z-score is reported as active: 17.2. Work on `Cc1ccc(Nc2nc(-c3sc(NC(=O)c4ccc([N+](=O)[O-])cc4)nc3C)cs2)cc1` yielded a z-score of 0.0842. `O=C(NNC(=O)C1CCCO1)c1ccc(Cl)cc1` (stereo not given) was tested, and the z-score was 0.119. Work on `O=C(CSc1nc2ccc(Cl)cc2o1)NCc1ccc2c(c1)OCO2` yielded a z-score of 0.168. For `COC(=O)c1ccc(SC2CCCCC2)c([N+](=O)[O-])c1`, the z-score was -0.116. For `Cc1c(C(=O)Nc2ccc(Br)cc2)cnn1C`, the z-score was -0.186. In the case of `Nc1ccc(-c2sc(N)nc2-c2ccccc2)cc1`, the z-score is reported as 0.254. Work on `CCn1c(C)c(C(C)=O)c(N2CCCCC2)nc1=S` yielded a z-score of 0.791. `O=C(Nc1cccc(C(=O)N2CCOCC2)c1)c1ncn[nH]1` showed a z-score of -0.145. Compound `Cc1nn(C)cc1CNC(=O)c1cccc(Cl)c1` has a z-score of -0.0315. Work on `CN(CC(=O)O)S(=O)(=O)c1ccc(F)cc1` yielded a z-score of 0.145. `COc1cccc(/C=N/NC(=O)c2[nH]nc3c2CCc2ccccc2-3)c1O` showed a z-score of 0.389. For `CC(C)CC(=O)NC(=S)Nc1cccc(NC(=O)c2ccccc2Cl)c1`, the z-score was -0.244. For `Cc1ccccc1Nc1nc(N)nc(COC(=O)C(NC(=O)c2ccco2)C(C)C)n1` (stereo not given), the z-score was -1.8. In the case of `CCOc1cccc(-c2nc(C(N)=O)c3[nH]c(=O)n(-c4cccc(Cl)c4)c3n2)c1O`, the z-score is reported as -2.19. Compound `Cc1cccc(Cc2c(C)nc3c(C(=O)N4CCN(Cc5ccc6c(c5)OCO6)CC4)cnn3c2C)c1` has a z-score of -0.198. With `O=C(CC1SC(=Nc2ccccc2)N(CCCCO)C1=O)NCc1ccccc1` (stereo not given) the z-score was 0.00558. `O=C1CCC(=O)N1CN(Cc1ccco1)CN1C(=O)CCC1=O` showed a z-score of 1.32. Compound `C=C(c1ccc(O)cc1)c1ccc(O)cc1` has a z-score of -0.139. With `Cc1cc(F)ccc1S(=O)(=O)Nc1c(C)n(C)n(-c2ccccc2)c1=O` the z-score was -0.0341. For `CCOC(=O)NNC1CC(=O)N(c2ccccc2)C1=O` (stereo not given), the z-score was -0.474. In the case of `S=c1nc(-c2ccc(Br)cc2)oc2c1CCCC2`, the z-score is reported as active: 4.2. For `CCNC(=S)N/N=C/c1cc(Br)cc(Br)c1OC`, the z-score was 0.524. For `CCOc1ccc2c(c1)OC(c1ccc(C)cc1)(C(F)(F)F)NC2=O` (stereo not given), the z-score was 0.1. `CC1(C)C2CCC1(CS(=O)(=O)N1CCOCC1)C(=O)C2` (stereo not given) showed a z-score of -0.0543. `CCCCCCCCCCCCCCCC[n+]1ccc(/C=N/O)cc1` was tested, and the z-score was -0.57. Work on `CN(C)/C=C(/C(=O)c1ccc(Cl)cc1Cl)S(=O)(=O)c1ccc(Cl)cc1` yielded a z-score of 0.0336. `O=C(O)c1cccc(CSc2nc(-c3ccc(Cl)cc3)cc(C(F)(F)F)n2)c1` showed a z-score of -0.523. With `COc1ccc(Br)cc1-c1nc(C)c(C(C)=O)n1O` the z-score was 0.0389. In the case of `CSCCC1NC2(C(=O)Nc3c(Cl)cccc32)[C@@H]2C(=O)N(C3CCCC3)C(=O)[C@H]12` (stereo not given in full), the z-score is reported as -0.443. Compound `CC(C)Cn1nnc2c(=O)oc3ccccc3c21` has a z-score of -1.57. `C=CCn1c(CCC(=O)O)ccc1-c1ccc(OC)cc1` showed a z-score of 0.0969. Compound `CCOc1ccc(NC(=O)CSc2nnc(Cn3cnc4ccccc43)n2C)cc1` has a z-score of -0.333.
